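Test compounds were applied to cells in 96-well plates for 48 hours at 5 doses. GI50: concentration for 50% inhibition of growth.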 Activity calls are given as the source filed them. No stated cut-off is given here; in the data, active = GI50 up to about 1.1 µM and inactive = higher.
test system: NCI-H322M; test: growth of human tumour cells (NCI), 48 h

Compound	GI50
Clc1cc2nc[nH]c2cc1Cl	inactive: > 100 µM
CC(C)(C)C1CCC2c3c([nH]c4ccccc34)C3C(=O)N(c4ccc([N+](=O)[O-])cc4)C(=O)C3C2C1 (centres undefined)	inactive: 29.4 µM
N#CCC1C2CC3C(C2=O)C13 (centres undefined)	inactive: > 100 µM
Nc1nc2c(c(=O)[n-]1)[n+](CCO)cn2C1OC(CO)C(O)C1O (centres undefined)	inactive: > 100 µM
Cc1nc(-c2nc(C)c(C(=O)NNC(=O)C[n+]3ccccc3)s2)sc1C(=O)NNC(=O)C[n+]1ccccc1	inactive: > 100 µM
NC1=NC(=O)C(CC(=O)Nc2ccc([N+](=O)[O-])cc2[N+](=O)[O-])S1 (centres undefined)	inactive: > 100 µM
C/C1=C\[C@H](C)C[C@H](C)OC(=O)[C@H](C)NC(=O)[C@@H](Cc2ccc(O)c(Br)c2)N(C)C(=O)[C@H](C)NC(=O)[C@@H](C)C1	active: 0.413 µM
Cc1cc(O)nc(NNC(C#N)c2c(O)ccc3ccccc23)n1 (centres undefined)	inactive: 2.58 µM
O=C1c2c(c3c4ccccc4[nH]c3c3[nH]c4ccccc4c23)C(=O)N1Cc1ccccc1	inactive: 3.24 µM
O=C([O-])Cc1ccccc1.[Na+] [SODIUM PHENYLACETATE]	inactive: 1130 µM
Cc1cc(C)nc(NS(=O)(=O)c2ccc(NC(=O)c3cccc4c(=O)c5ccccc5[nH]c34)cc2)n1	inactive: 22.2 µM
CN(C)c1ccc(C=c2c3ccccc3n3c2c2c([n+]3C)CCCC2)cc1	active: 0.38 µM
O=C(O)c1ccc([N+](=O)[O-])c(P(=O)(O)O)c1	inactive: > 100 µM
CC1OC(OC2C(O)COC(OC3C(C)OC(OC4C(OC(=O)[C@]56CCC(C)(C)C[C@@H]5C5=CCC7[C@@]8(C)C[C@H](O)[C@H](OC9OC(CO)C(O)C(O)C9O)[C@@](C)(CO)[C@@H]8CC[C@@]7(C)[C@]5(C)CC6)OCC(O)C4O)C(O)C3OC3OCC(O)C(O)C3O)C2O)C(O)C(O)C1O (some centres undefined)	inactive: 16 µM
CCCOc1ccc(/C=C\c2cc(OC)c(OC)c(OC)c2)cc1	inactive: 95.9 µM
CC(C)=CCOC(=O)C(C)=[N+]=[N-]	inactive: > 100 µM
CN(CCc1ccccn1)/[N+]([O-])=N/O.CNCCc1ccccn1	inactive: > 100 µM
Cc1cc(O)nc(NNC(C#N)c2cccc([N+](=O)[O-])c2)n1 (centres undefined)	inactive: > 100 µM
CCOC(=O)NC(=O)c1cn(CCOC(=O)CCCCCCCCC(=O)OCCn2cc(C(=O)NC(=O)OCC)c(=O)[nH]c2=O)c(=O)[nH]c1=O	inactive: > 100 µM
O=S1(=O)c2ccccc2NC(=S)N1c1ccccc1	inactive: > 8.75 µM
CCOC(=O)C(NS(=O)(=O)c1ccccc1)(C(F)(F)F)P(=O)(OCC(C)C)OCC(C)C (centres undefined)	inactive: > 100 µM
Cc1cc(N(CCC#N)CCC#N)ccc1/C=C1/N=C(c2ccccc2)N(N)C1=O	inactive: > 100 µM

Compound	GI50
COc1ccc2oc(=O)c3c(c2c1C)OC(C)(C)C=C3	inactive: > 100 µM
Nc1nc(NCCO)c(N=O)c(=O)[nH]1	inactive: > 100 µM
CC(C)(c1ccccc1)c1ccc(Oc2ccc(C#N)c(C#N)c2)cc1	inactive: > 10 µM
COc1ccc(NC(=O)CC/C(CC(=O)c2ccco2)=N/Nc2ccc([N+](=O)[O-])cc2[N+](=O)[O-])cc1	inactive: > 100 µM
CCOC(=O)C(/N=N\c1ccc(S(N)(=O)=O)cc1)C(C)=O (centres undefined)	inactive: > 100 µM
S=C(N1CCN(c2cccc(Cl)c2)CC1)N1CCN(c2cccc(Cl)c2)CC1	inactive: 54.7 µM
COc1ccc2c(c1)/C(=C\c1c(Cl)n(-c3ccccc3)c3ccccc13)C(=O)N2	inactive: 13.1 µM
C=C1C(=O)[C@]23C[C@H]1C[C@@H](O)[C@H]2[C@]1(COC3=O)[C@@H](OC(C)=O)CC[C@@](C)(COC(C)=O)[C@H]1C=O [LOXOTHYRIN A]	inactive: > 50 µM
O=C1/C(=C/c2ccc(O)cc2)NC(=S)N1CN1CCCCC1	inactive: > 100 µM
COc1ccc(C(C#N)NNC(=O)c2ccccc2O)cc1OC (centres undefined)	inactive: 4.31 µM
COc1cc(NCc2ccc3n2-c2ccccc2OC3)cc(OC)c1OC	inactive: 66.1 µM
CC[N+]1(C)CCC(O)(c2ccc(OC)cc2)C(C(=O)c2ccc(OC)cc2)C1 (centres undefined)	inactive: 16.7 µM
Nc1nc(=O)[nH]cc1F [FLUCYTOSINE]	inactive: > 100 µM
C=CCC1(O)c2cccc(O)c2C(=O)c2cccc(O)c21 (centres undefined)	inactive: 26.6 µM
C=CCC1C(=O)CC2(C)CC(=O)C(CC=C)C12C (centres undefined)	inactive: > 100 µM
NNC(=S)N/N=C(\c1nc2ccc(Cl)cc2nc1O)C(O)c1cccc([N+](=O)[O-])c1 (centres undefined)	inactive: > 100 µM
CCOc1ccc(NC(=O)/C(=C\c2ccc(C)cc2)C(C)=O)cc1	inactive: > 100 µM
C/C(CC/C(C)=N/O)=N\O	inactive: > 100 µM
O=C(/C=C/C(=O)N1CCCC1)N1CCCC1	inactive: > 100 µM
CCOC(=O)Cc1ccc2c(c1O)C(=O)c1c(ccc(CC(=O)OCC)c1O)C2=O	inactive: > 100 µM
O=C(O)c1cc2ccccc2c(/N=N\c2cc(C(F)(F)F)ccc2Cl)c1O	inactive: > 100 µM
CN(C)C(=S)N/N=C\C=N/NC(=S)N(C)C	active: 0.457 µM

Source: ChEMBL document CHEMBL1201862, “PubChem BioAssay data set” (2004)
